Out of some 190,000 compounds screened, about 360 (0.19%) were called active.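 Rule for the calls: active = GTP binding activity at least 20 points away from 100%, either lowered or raised; inconclusive = signal likely due to the compound's own green fluorescence; inactive = the rest.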 Inconclusive results, whose numbers are uncertain, are shown.
Biological target: Ras-related protein Rab-2A (Canis lupus familiaris) (UniProt P61105)
Assay: Rab2 wt fluorescent GTP binding changes, either direction – biochemical, dog, bead-based flow cytometry, multiplex, primary screen (AID 760);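 note: 0% = beads with excess unlabeled GTP and 100% = no-compound control corrected for plate trend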
Settings: GST-Rab2 wt beads, Bodipy-GTP binding, at 10 µM

Structure (SMILES)	GTP binding activity
COc1cc(NS(=O)(=O)c2ccc(NC(=S)NC(=O)c3sc4ccccc4c3Cl)cc2)nc(OC)n1	inconclusive: 83%

Source: PubChem BioAssay AID760 (NMMLSC, 2007)
